Some of these densities may be calculated back from excess volumes.
Assay: xn = mol fraction of the nth substance listed
Conditions: 100 kPa

O + CCCC[n+]1ccn(C)c1.[Br-]
x2 = 0
Conditions	mass density [kg/m3]
313.15 K	992.5
323.15 K	988.2
333.15 K	983.6
343.15 K	978.2

O + CCCn1cc[n+](C)c1.[Br-]
x2 = 0
Conditions	mass density [kg/m3]
313.15 K	992.5
323.15 K	988.2

O + CC[n+]1ccn(C)c1.[Br-]
x2 = 0
Conditions	mass density [kg/m3]
313.15 K	992.5
333.15 K	983.6

CCCC[n+]1ccn(C)c1.[Br-] + O
mass density [kg/m3]
Conditions	x1 = 0.05	x1 = 0.0992	x1 = 0.1481	x1 = 0.1979	x1 = 0.2517	x1 = 0.3882
303.15 K	–	–	1190.9	1215.5	1233.1	–
313.15 K	–	1148.9	1183.7	1208.2	1225.8	–
323.15 K	1088.3	1141.8	1176.3	1200.9	1218.5	–
333.15 K	–	–	1168.8	–	–	–
343.15 K	1074.5	1126.9	1161.2	1185.8	1203.6	1235.2

CCCn1cc[n+](C)c1.[Br-] + O
mass density [kg/m3]
Conditions	x1 = 0.0497	x1 = 0.0992	x1 = 0.149	x1 = 0.1984	x1 = 0.4005	x1 = 0.5756	x1 = 0.749
303.15 K	1103	1167.3	–	1238.6	–	1322	1334.1
313.15 K	1097.4	1160.7	–	1231.4	1292	1315	1327.2
323.15 K	–	1153.8	1194.1	1224	1284.9	1307.9	–
333.15 K	1085.1	1146.8	1186.7	1216.6	1277.7	1300.9	1313.1
343.15 K	1079.4	1139.5	1179.6	1209	1270.6	1294	1306.1

CC[n+]1ccn(C)c1.[Br-] + O
mass density [kg/m3]
Conditions	x1 = 0.049	x1 = 0.0997	x1 = 0.1466	x1 = 0.1978	x1 = 0.2501	x1 = 0.3881	x1 = 0.543
303.15 K	–	1181.1	1228.6	–	1293.5	1338.4	1368.3
313.15 K	1102.8	1175	1221.9	1257.2	1286.5	1331.5	1361.3
323.15 K	1097.2	1168.6	1215.2	1250.2	1279.4	1324.4	1354.3
333.15 K	–	1161.9	1208.2	1243.1	1272.2	1317.3	1347.2
343.15 K	1083.3	1154.9	1201	1235.8	1264.9	1310.1	1340.2

— a compilation of properties of binary mixtures (doi:10.1021/acs.jced.2c00033)
